Read counts are not given, so values of variants with three or more changes are uncertain.
B1: CPEB3 Ribozyme (parent)
chain: UAACAGGGGGCCACAGCAGAAGCGUUCACGUCGCAGCCCCUGUCAGAUUCUGGUGAAUCUGCGAAUUCUGCUGUAUAUCUC

Variants of: B1
Test: self-cleavage, relative activity (ratio to wild type); higher = more cleavage; in vitro, sequencing
Procedure, shortened: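 Barcoded CPEB3 ribozyme mutants, produced by rounds of error-prone PCR, self-cleaved while being transcribed with T7 RNA polymerase for 5 hours at 37°C and during a subsequent 15 min DNase I step before EDTA was added. Sequencing of template-switched cDNA on Illumina gave cleaved and total reads, and DNA sequencing assigned barcodes to variants. Each variant's relative activity is its cleaved/total read fraction divided by the unmutated ribozyme's fraction, averaged across three batches. A variant needed a minimum of 5 reads.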

Row | Variant | self-cleavage
1 | UAACCGGGGGCCACAGCAGAAGCGUUCACGUCGCAGCCACUGUCAGAUUCUGAUGAAUCUGCGAAUUCUGCUGUAUAUCUC [A5C C39A G53A] | 0.12
2 | UAACCCGGGGCCACAGCAGAAGCGUCCACGUCGCAGCCCCAGACAGAUUCUGGUGAAUCUGCGAAUUCUGCUGUAUCUCUC [A5C G6C U26C U41A U43A A77C] | 0.27
3 | UAACCGGGGGCUACAGCAGAAGCGUUCACGACGCAGCCCCUGUCAGAUUCUGGUGAAUCUGCGAGUUCUGCUGUAUAUCUC [A5C C12U U31A A65G] | 0.25
4 | UAACCGGGCGCCACAGCAGAAGCGAUCUCGUCGCAACCCCUGUCAGAUUCUGGUGAAUCUGCGAAUUCUGCUGUAUAUCUC [A5C G9C U25A A28U G36A] | 0.08
5 | UAACCGGGGGCCACAGCAAAAGCGUCCACGUCGCAGCCCCUGUCAGAUUCUGGUGAAUUUGCGAAUUCUGCUGUAUAUCUC [A5C G19A U26C C59U] | 0.1
6 | UAACCGGGAGCCACGGCAGAAGCGUUCGCGUCGCAGCCCCUGUCAGAUUCUGGUGAAUCUGCGAAUACUGCUGUAUAUCUC [A5C G9A A15G A28G U67A] | 0.12
7 | UAACCGGGGGCCACAGCAGAAGCGAUCACGUCGUAGCCCCUGUCAGAUUCUGGUGAACCUGCGAAUUCUGCUGUAUAUCUC [A5C U25A C34U U58C] | 0.16
8 | UAACCGGGGGCCACAGCAGAAGCGCUCAUGUCGCAGCCCCUGUCAGAUUCUGGUGAAUUUGCGAAUUCUGCUGCAUAUCUC [A5C U25C C29U C59U U74C] | 0.12
9 | UAACCGCGGGCCACAGCAGAAGCGUUCACGUCGCAGCCCCCGUCAGAUUCUGGUGAAUCCGCGAAUUCUGCUGUAUAUCAC [A5C G7C U41C U60C U80A] | 0.43
10 | UAACCGGGGGCCACAGCAGAAGCGUUCACGUAGCGGCCCCUGUCAGAUUCUGGUGAAUCAGCGAAUCCUGCUGUAUAUCUC [A5C C32A A35G U60A U67C] | 0.15
11 | UAACCGGUGGCCACAGCAGAAGCGUUCGCGUCGCAGCCCCUGUCAGAUUCUGGUGAAUCUGCGAAUUCUGCUGUAUAUCCC [A5C G8U A28G U80C] | 0.27
12 | UAACCGGGGGCCACAGCAGAAGCGUUCACGUCGCAGCCCAAGUCAGAUUCUGGUGAAUCUGCGAAUUCUGCUGUAUAUCUC [A5C C40A U41A] | 0.36
13 | UAACCGGGGGCCACAGCAGAAGCGUUCACGUCGCAGCCCCUGUCAGAUUCUGCUGAAUCUGCGAAUUCCGCUGUAUAUCUC [A5C G53C U69C] | 0.79
14 | UAACCGGGGGCCACAGCAGAAGCGCUCACGUCGCCGCCCCUGUCAGAUUCUGGUGAAUCUGCGAAUUCUGCUGUAUAUCUC [A5C U25C A35C] | 0.39
15 | UAACCGGGGGCCACAGCAGAAGCGAUCGCGCCGCAGCCCCUGUCAGAUUCUGGUGAAUCUGCGAGUUCUGCUGUAUAUCUC [A5C U25A A28G U31C A65G] | 0.06
16 | UAACCGGGUGCCACAGCAGAAGCGUUCUCGUCGCAGCCCCUGCCAGAUUCUGGUGAAUCUGCGAAUUCUGCUGUAUAUCCC [A5C G9U A28U U43C U80C] | 0.32
17 | UAACCGGGGGCCACAGCAGAAGCGUUCACGUCGCAGCCCCUGUCAGAUUCUAGUGAAUCUGGGAAUUCUGCUGUAUAUCUC [A5C G52A C62G] | 0.15

Row | Variant | self-cleavage
18 | UAACCAGGGGCCGCAGCAGAAGCGUUCGCGUCGCAGCCCCUGUCAGAUUCUGGUGAAUCUGCGAAUUCUGCUGUAUAUCUC [A5C G6A A13G A28G] | 0.41
19 | UAACCGGGGACCACAGCAGAAGCGUCCACGUCGCAGCCCCUGUCAGAUACUGGCGAAUCUGCGAACUCUGCUGUAUAUCUC [A5C G10A U26C U49A U54C U66C] | 0.07
20 | UAACCGGGGGCCACAGCAGAAGCGUUCACGUCGCAGCCCCUGUCAGAUUCUGGUGAAUCUGCGUAUUCUGAUGUAUAUCUC [A5C A64U C71A] | 0.07
21 | UAACCGGGGGCCACAGCAAAAGCGUUCACGUCGCAGCCCCUGACAGAUUCUGGUGAAUCUGCGAAUUCUGCUGUAAAUCUC [A5C G19A U43A U76A] | 0.21
22 | UAACCCGGGGCCACAGCAGAAGCGUUCACGUCGCAGCCCCUGUCAGAUUCUGGUGAAUCUGCGAAUACUGCUGUAUAUCCC [A5C G6C U67A U80C] | 0.53
23 | UAACCGGGUGCCACAGCAGAAGCGUUCACGUCGCAGCCCCUGUCAGAUUCUGGUGAAUCUGCGAAUUCUGCCGUAUGUCUC [A5C G9U U72C A77G] | 0.11
24 | UAACCGGGGGCCACAGCAGAAGCGUUCACGUUGCAGCCCCCGUCAGAUUCUGGUGAAUCUGCGAGUUCCGGUGUAUAUCUC [A5C C32U U41C A65G U69C C71G] | 0.08
25 | UAACCGGAGGCCAAAGCAGAGGCGUUCACGCCGCAGCCCCUGUCAGAUUCUGGUGAAUCUGCGAUUUCUGCUGUAUAUCUC [A5C G8A C14A A21G U31C A65U] | 0.1
26 | UAACCGGGGGCCACAGCAGAAGCGUUCAUGUUGCAGCCCCUGUCAGAUUCUGGUGAGUCUGCGAAUUCUGCCGUAUAUCUC [A5C C29U C32U A57G U72C] | 0.05
27 | UAACCGGGGGCCACAGCAGAAGCGUUCACGUAGCGGCCCCAGUCAGAUUCUGGUGAAUCUGCGAAUUCUGCUGUAUAUCUC [A5C C32A A35G U41A] | 0.36
28 | UAACCGGGAGCCACAGCAGUAGCGUUCACGUUGCAGCCCCUGUCAGAUUCUGGUGAAUCUGCGAAUUCUGCUGUAUACCUC [A5C G9A A20U C32U U78C] | 0.72
29 | UAACCGGGGGUCACAGCAGGAGCGUUCACGUCGCAGCCCCUGUCAGAUUCUGGUGAAUCUGCGAAUUCUGCUGUAUAUCUC [A5C C11U A20G] | 0.51
30 | UAACCGGGGGCCACAGCAGAAGCGUUCACGUCGCAGCCCCUGUCAGAUUCUGGUGAGUCUGCGAAUUCUGCAGUAUAUCUA [A5C A57G U72A C81A] | 1.11
31 | UAACCGGGGGCCACAGCAGAAGCGUUCACGUCGCAUCCCCUGUCAGGUCCUGGUGAAUCUGCGAAUUCUGCUGUAUAUCUC [A5C G36U A47G U49C] | 0.21
32 | UAACCGGGGGCCACAGCACACGCGUUCACGUCGCAGCCCCUGUCAGAUUCUGGUGAAUCUGCGAAUUCCGCUGUAUACCUC [A5C G19C A21C U69C U78C] | 0.16
33 | UAACCGGGAGCCACAGCAGAAGCGUUCACGUCGCACCCCCUGUCAGGUUCUGGUGAAUCUGCGAAUUCUGCUGUAUAUGUC [A5C G9A G36C A47G C79G] | 0.03
34 | UAACCGGGGGCCACAGCAGAAGCGUUCACGUCGCAGCCCCUGUCAGAUUCUGGUGAAUCUGCGAAUUCUGUUGUAUGUCUC [A5C C71U A77G] | 0.97

Source: the RNAGym collection of RNA variant scans (doi:10.1093/nar/gkz1192)
